# This is one part of the list.
# B1: CLEC5A (Homo sapiens), Q9NY25 (protein)
# chain: MNWHMIISGLIVVVLKVVGMTLFLLYFPQIFNKSNDGFTTTRSYGTVSQIFGSSSPSPNGFITTRSYGTVCPKDWEFYQARCFFLSTSESSWNESRDFCKGKGSTLAIVNTPEKLKFLQDITDAEKYFIGLIYHREEKRWRWINNSVFNGNVTNQNQNFNCATIGLTKTFDAASCDISYRRICEKNAK
# Tests used:
# Assay in all cases: glycan array binding signal (z-score within array); higher = stronger binding
# Settings in all cases: glycan notation: IUPAC condensed, linker removed
# Glc(a1-2)Glc = molecular target: Glc(a1-2)Glc
# Procedure, shortened: (§1)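 Glycan array data came from 3228 arrays in the Consortium for Functional Glycomics database, and only arrays with an available protein sequence were kept. Glycan names were put into IUPAC-condensed notation, and columns mapping to the same glycan were averaged. The binding signal is a within-array Z-score, averaged across arrays of one protein sequence run at different concentrations or buffers and across linkers. A negative Z-score can be read as non-binding.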
# [1] = molecular target: Glc(a1-2)Glc(a1-3)Glc(a1-3)Man(a1-2)Man(a1-2)Man(a1-3)[Man(a1-3)[Man(a1-6)]Man(a1-6)]Man(b1-4)GlcNAc
# Procedure, shortened: as §1
# Glc(a1-3)Glc = molecular target: Glc(a1-3)Glc
# Procedure, shortened: as §1
# [2] = molecular target: Glc(a1-3)Glc(a1-3)Man(a1-2)Man(a1-2)Man(a1-3)[Man(a1-3)[Man(a1-6)]Man(a1-6)]Man(b1-4)GlcNAc
# Procedure, shortened: as §1
# [3] = molecular target: Glc(a1-3)Man(a1-2)Man(a1-2)Man(a1-3)[Man(a1-2)Man(a1-3)[Man(a1-2)Man(a1-6)]Man(a1-6)]Man(b1-4)GlcNAc(b1-4)GlcNAc
# Procedure, shortened: as §1
# Glc(a1-4)Glc = molecular target: Glc(a1-4)Glc
# Procedure, shortened: as §1
# Glc(a1-4)Glc(a1-4)Glc = molecular target: Glc(a1-4)Glc(a1-4)Glc
# Procedure, shortened: as §1
# [4] = molecular target: Glc(a1-4)Glc(a1-4)Glc(a1-4)Glc
# Procedure, shortened: as §1
# [5] = molecular target: Glc(a1-4)Glc(a1-4)Glc(a1-4)Glc(a1-4)Glc
# Procedure, shortened: as §1
# [6] = molecular target: Glc(a1-4)Glc(a1-4)Glc(a1-4)Glc(a1-4)Glc(a1-4)Glc
# Procedure, shortened: as §1
# [7] = molecular target: Glc(a1-4)Glc(a1-4)Glc(a1-4)Glc(a1-4)Glc(a1-4)Glc(a1-4)Glc
# Procedure, shortened: as §1
# [8] = molecular target: Glc(a1-4)Glc(a1-4)Glc(a1-4)Glc(a1-4)Glc(a1-4)Glc(a1-4)Glc(a1-4)Glc
# Procedure, shortened: as §1
# [9] = molecular target: Glc(a1-4)Glc(a1-4)Glc(a1-4)Glc(a1-4)Glc(a1-4)Glc(a1-4)Glc(a1-4)Glc(a1-4)Glc
# Procedure, shortened: as §1
# [10] = molecular target: Glc(a1-4)Glc(a1-4)Glc(a1-4)Glc(a1-4)Glc(a1-4)Glc(a1-4)Glc(a1-4)Glc(a1-4)Glc(a1-4)Glc
# Procedure, shortened: as §1
# [11] = molecular target: Glc(a1-4)Glc(a1-4)Glc(a1-4)Glc(a1-4)Glc(a1-4)Glc(a1-4)Glc(a1-4)Glc(a1-4)Glc(a1-4)Glc(a1-4)Glc
# Procedure, shortened: as §1
# [12] = molecular target: Glc(a1-4)Glc(a1-4)Glc(a1-4)Glc(a1-4)Glc(a1-4)Glc(a1-4)Glc(a1-4)Glc(a1-4)Glc(a1-4)Glc(a1-4)Glc(a1-4)Glc
# Procedure, shortened: as §1
# [13] = molecular target: Glc(a1-4)Glc(a1-4)Glc(a1-4)Glc(a1-4)Glc(a1-4)Glc(a1-4)Glc(a1-4)Glc(a1-4)Glc(a1-4)Glc(a1-4)Glc(a1-4)Glc(a1-4)Glc
# Procedure, shortened: as §1
# Glc(a1-6)Glc = molecular target: Glc(a1-6)Glc
# Procedure, shortened: as §1
# [14] = molecular target: Glc(a1-6)Glc(a1-4)Glc(a1-4)Glc
# Procedure, shortened: as §1
# Glc(a1-6)Glc(a1-6)Glc = molecular target: Glc(a1-6)Glc(a1-6)Glc
# Procedure, shortened: as §1
# [15] = molecular target: Glc(a1-6)Glc(a1-6)Glc(a1-6)Glc
# Procedure, shortened: as §1
# [16] = molecular target: Glc(a1-6)Glc(a1-6)Glc(a1-6)Glc(a1-6)Glc
# Procedure, shortened: as §1
# [17] = molecular target: Glc(a1-6)Glc(a1-6)Glc(a1-6)Glc(a1-6)Glc(a1-6)Glc
# Procedure, shortened: as §1
# [18] = molecular target: Glc(a1-6)Glc(a1-6)Glc(a1-6)Glc(a1-6)Glc(a1-6)Glc(a1-6)Glc
# Procedure, shortened: as §1
# [19] = molecular target: Glc(a1-6)Glc(a1-6)Glc(a1-6)Glc(a1-6)Glc(a1-6)Glc(a1-6)Glc(a1-6)Glc
# Procedure, shortened: as §1
# [20] = molecular target: Glc(a1-6)Glc(a1-6)Glc(a1-6)Glc(a1-6)Glc(a1-6)Glc(a1-6)Glc(a1-6)Glc(a1-6)Glc
# Procedure, shortened: as §1
# [21] = molecular target: Glc(a1-6)Glc(a1-6)Glc(a1-6)Glc(a1-6)Glc(a1-6)Glc(a1-6)Glc(a1-6)Glc(a1-6)Glc(a1-6)Glc
# Procedure, shortened: as §1
# [22] = molecular target: Glc(a1-6)Glc(a1-6)Glc(a1-6)Glc(a1-6)Glc(a1-6)Glc(a1-6)Glc(a1-6)Glc(a1-6)Glc(a1-6)Glc(a1-6)Glc
# Procedure, shortened: as §1
# [23] = molecular target: Glc(a1-6)Glc(a1-6)Glc(a1-6)Glc(a1-6)Glc(a1-6)Glc(a1-6)Glc(a1-6)Glc(a1-6)Glc(a1-6)Glc(a1-6)Glc(a1-6)Glc
# Procedure, shortened: as §1
# [24] = molecular target: Glc(a1-6)Glc(a1-6)Glc(a1-6)Glc(a1-6)Glc(a1-6)Glc(a1-6)Glc(a1-6)Glc(a1-6)Glc(a1-6)Glc(a1-6)Glc(a1-6)Glc(a1-6)Glc
# Procedure, shortened: as §1
# Glc(b1-3)Glc = molecular target: Glc(b1-3)Glc
# Procedure, shortened: as §1
# Glc(b1-3)Glc(b1-3)Glc = molecular target: Glc(b1-3)Glc(b1-3)Glc
# Procedure, shortened: as §1
# [25] = molecular target: Glc(b1-3)Glc(b1-3)Glc(b1-3)Glc
# Procedure, shortened: as §1
# [26] = molecular target: Glc(b1-3)Glc(b1-3)Glc(b1-3)Glc(b1-3)Glc
# Procedure, shortened: as §1
# [27] = molecular target: Glc(b1-3)Glc(b1-3)Glc(b1-3)Glc(b1-3)Glc(b1-3)Glc
# Procedure, shortened: as §1
# [28] = molecular target: Glc(b1-3)Glc(b1-3)Glc(b1-3)Glc(b1-3)Glc(b1-3)Glc(b1-3)Glc
# Procedure, shortened: as §1
# [29] = molecular target: Glc(b1-3)Glc(b1-3)Glc(b1-3)Glc(b1-3)Glc(b1-3)Glc(b1-3)Glc(b1-3)Glc
# Procedure, shortened: as §1
# [30] = molecular target: Glc(b1-3)Glc(b1-3)Glc(b1-3)Glc(b1-3)Glc(b1-3)Glc(b1-3)Glc(b1-3)Glc(b1-3)Glc
# Procedure, shortened: as §1
# [31] = molecular target: Glc(b1-3)Glc(b1-3)Glc(b1-3)Glc(b1-3)Glc(b1-3)Glc(b1-3)Glc(b1-3)Glc(b1-3)Glc(b1-3)Glc
# Procedure, shortened: as §1
# [32] = molecular target: Glc(b1-3)Glc(b1-3)Glc(b1-3)Glc(b1-3)Glc(b1-3)Glc(b1-3)Glc(b1-3)Glc(b1-3)Glc(b1-3)Glc(b1-3)Glc
# Procedure, shortened: as §1
# [33] = molecular target: Glc(b1-3)Glc(b1-3)Glc(b1-3)Glc(b1-3)Glc(b1-3)Glc(b1-3)Glc(b1-3)Glc(b1-3)Glc(b1-3)Glc(b1-3)Glc(b1-3)Glc
# Procedure, shortened: as §1
# [34] = molecular target: Glc(b1-3)Glc(b1-3)Glc(b1-3)Glc(b1-3)Glc(b1-3)Glc(b1-3)Glc(b1-3)Glc(b1-3)Glc(b1-3)Glc(b1-3)Glc(b1-3)Glc(b1-3)Glc
# Procedure, shortened: as §1
# Glc(b1-4)Glc = molecular target: Glc(b1-4)Glc
# Procedure, shortened: as §1
# Glc(b1-4)Glc(b1-4)Glc = molecular target: Glc(b1-4)Glc(b1-4)Glc
# Procedure, shortened: as §1
# [35] = molecular target: Glc(b1-4)Glc(b1-4)Glc(b1-4)Glc
# Procedure, shortened: as §1
binder,measurement,setting,value
B1,glycan array binding signal (z-score),Glc(a1-2)Glc,-0.32
same,glycan array binding signal (z-score),[1],-0.32
same,glycan array binding signal (z-score),Glc(a1-3)Glc,-0.32
same,glycan array binding signal (z-score),[2],-0.32
same,glycan array binding signal (z-score),[3],0.933
same,glycan array binding signal (z-score),Glc(a1-4)Glc,0.008
same,glycan array binding signal (z-score),Glc(a1-4)Glc(a1-4)Glc,-0.031
same,glycan array binding signal (z-score),[4],-0.188
same,glycan array binding signal (z-score),[5],-0.32
same,glycan array binding signal (z-score),[6],1.32
same,glycan array binding signal (z-score),[7],1.03
same,glycan array binding signal (z-score),[8],-0.32
same,glycan array binding signal (z-score),[9],0.066
same,glycan array binding signal (z-score),[10],-0.32
same,glycan array binding signal (z-score),[11],-0.32
same,glycan array binding signal (z-score),[12],0.162
same,glycan array binding signal (z-score),[13],-0.32
same,glycan array binding signal (z-score),Glc(a1-6)Glc,1.7
same,glycan array binding signal (z-score),[14],-0.32
same,glycan array binding signal (z-score),Glc(a1-6)Glc(a1-6)Glc,-0.206
same,glycan array binding signal (z-score),[15],-0.198
same,glycan array binding signal (z-score),[16],-0.32
same,glycan array binding signal (z-score),[17],-0.32
same,glycan array binding signal (z-score),[18],1.51
same,glycan array binding signal (z-score),[19],0.258
same,glycan array binding signal (z-score),[20],1.32
same,glycan array binding signal (z-score),[21],-0.32
same,glycan array binding signal (z-score),[22],-0.32
same,glycan array binding signal (z-score),[23],0.548
same,glycan array binding signal (z-score),[24],2.19
same,glycan array binding signal (z-score),Glc(b1-3)Glc,-0.32
same,glycan array binding signal (z-score),Glc(b1-3)Glc(b1-3)Glc,1.13
same,glycan array binding signal (z-score),[25],-0.32
same,glycan array binding signal (z-score),[26],6.52
same,glycan array binding signal (z-score),[27],-0.32
same,glycan array binding signal (z-score),[28],1.8
same,glycan array binding signal (z-score),[29],0.644
same,glycan array binding signal (z-score),[30],-0.32
same,glycan array binding signal (z-score),[31],-0.32
same,glycan array binding signal (z-score),[32],-0.32
same,glycan array binding signal (z-score),[33],1.32
same,glycan array binding signal (z-score),[34],-0.32
same,glycan array binding signal (z-score),Glc(b1-4)Glc,-0.371
same,glycan array binding signal (z-score),Glc(b1-4)Glc(b1-4)Glc,-0.32
same,glycan array binding signal (z-score),[35],0.837

# From the supplement of paper PMC8728848
